Experimental data reported in a compilation of properties of binary mixtures (doi:10.1007/s10953-011-9788-x).
Some of these densities may be calculated back from excess volumes.

Test: xn = mol fraction of the nth substance listed
Details: 101 kPa

CCCC[n+]1ccn(C)c1.N[C@@H](CCC(=O)O)C(=O)[O-] + CO
mass density [kg/m3]
Details | x2 = 0.1087 | x2 = 0.2002 | x2 = 0.2995 | x2 = 0.4003 | x2 = 0.4998 | x2 = 0.6002 | x2 = 0.7 | x2 = 0.8001 | x2 = 0.9
298.15 K | 1188 | – | – | 1159.9 | 1143.9 | 1122.2 | – | 1043.8 | –
303.15 K | 1186.5 | 1179.7 | 1170.3 | 1157.8 | 1141.5 | – | 1088.5 | 1040.4 | 956.6
308.15 K | 1184.7 | 1177.7 | 1168 | 1155.2 | 1138.7 | – | 1084.9 | – | 951.7
313.15 K | 1182.9 | – | 1165.8 | 1152.8 | 1136 | 1113.5 | – | 1032.8 | 948
